# Results reported in article PMC4336329 (PLoS ONE, 2015).
# Among all 310,000 compounds or so, about 14,000 (4.5%) showed an effect of 50% or more. Effects have a minus sign here. The list shows a part of the results.
# Molecular target: human ether-à-go-go-related gene (hERG) potassium channel (human, UniProt Q12809)
# Experiment: primary screen, population patch clamp on CHO cells stably expressing hERG
# 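Also: peak tail current of the secondary pulse compared with the same well before compound.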
# human ether-à-go-go-related gene (hERG) potassium channel, sequence (Q12809 whole entry, looked up): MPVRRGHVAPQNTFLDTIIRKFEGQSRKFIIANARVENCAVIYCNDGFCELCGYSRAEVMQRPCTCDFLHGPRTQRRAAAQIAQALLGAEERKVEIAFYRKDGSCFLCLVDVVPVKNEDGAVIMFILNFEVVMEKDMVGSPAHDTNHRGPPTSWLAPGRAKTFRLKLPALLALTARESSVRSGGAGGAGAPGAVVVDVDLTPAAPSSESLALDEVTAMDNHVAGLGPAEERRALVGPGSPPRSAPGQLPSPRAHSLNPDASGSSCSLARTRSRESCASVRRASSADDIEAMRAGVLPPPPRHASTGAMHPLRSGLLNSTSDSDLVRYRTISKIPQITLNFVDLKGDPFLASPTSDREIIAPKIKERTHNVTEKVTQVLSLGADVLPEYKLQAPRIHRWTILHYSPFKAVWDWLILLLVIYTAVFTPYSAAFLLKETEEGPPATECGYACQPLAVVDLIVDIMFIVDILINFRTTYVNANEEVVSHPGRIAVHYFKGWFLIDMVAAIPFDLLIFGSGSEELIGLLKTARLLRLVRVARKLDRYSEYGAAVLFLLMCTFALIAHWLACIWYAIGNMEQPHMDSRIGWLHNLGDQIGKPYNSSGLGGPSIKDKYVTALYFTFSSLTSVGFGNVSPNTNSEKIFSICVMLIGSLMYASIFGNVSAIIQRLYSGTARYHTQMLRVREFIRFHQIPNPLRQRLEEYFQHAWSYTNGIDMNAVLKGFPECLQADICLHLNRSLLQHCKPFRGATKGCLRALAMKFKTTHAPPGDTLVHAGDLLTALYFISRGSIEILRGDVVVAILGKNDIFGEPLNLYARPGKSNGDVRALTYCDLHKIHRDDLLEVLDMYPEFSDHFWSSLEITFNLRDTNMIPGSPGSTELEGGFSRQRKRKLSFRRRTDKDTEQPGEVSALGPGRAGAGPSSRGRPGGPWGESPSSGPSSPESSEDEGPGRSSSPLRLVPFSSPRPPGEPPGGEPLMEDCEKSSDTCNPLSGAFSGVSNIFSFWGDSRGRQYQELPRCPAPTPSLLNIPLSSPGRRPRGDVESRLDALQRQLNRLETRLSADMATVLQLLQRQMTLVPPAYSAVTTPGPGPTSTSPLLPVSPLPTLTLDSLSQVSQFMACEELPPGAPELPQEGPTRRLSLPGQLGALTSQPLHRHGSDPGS
row,SMILES,"hERG current change (%, negative = inhibition) at 10uM"
1,N#Cc1ncc(Cc2ccccc2)nc1C#N,11.7%
2,Cn1cc(CN2CCCC(CNS(=O)(=O)c3cccc4cccnc34)C2)cn1 (centres unmarked),5.77%
3,COc1ccc(N(C)S(=O)(=O)c2ccc3c(c2)CCN3C(=O)C2CC2)c(OC)c1,-22.4%
4,Cc1[nH]c(=O)[nH]c(=O)c1S(=O)(=O)N(CC(C)C)CC(C)C,21%
5,CCOC(=O)c1ccc(NC(=S)N2CCC(C(N)=O)(N3CCCCC3)CC2)cc1,2.47%
6,CC1CCc2c(sc(NC(=O)CSc3nnc(-c4ccccc4)o3)c2C#N)C1 (centres unmarked),6.67%
7,Cc1ccc(C)c(N2CCN(C(=O)COc3cc(=O)n(C)c4ccccc34)CC2)c1,-32.3%
8,N#CCc1ccc(NC(=O)c2ccc(S(=O)(=O)N3CCCC3)cc2)cc1,16.9%
9,CCn1c(=O)cc(OCC(=O)Nc2ccc(C)cn2)c2ccccc21,-0.844%
10,CCn1nnc(NC(=O)c2cc(Cl)c(OC)c(Cl)c2)n1,-8.03%
11,O=C(NCCCN1CCOCC1)c1ccc(CNS(=O)(=O)c2ccc(Br)cc2)cc1,-18.9%
12,C=CCN1C(=O)c2cccc3c(Br)ccc(c23)C1=O,7.56%
13,CCOC(=O)C1CCCN(C(=O)Cc2c(C(=O)O)[nH]c3ccccc23)C1 (centres unmarked),-2.79%
14,Cc1cc(NCc2ccccc2)nc(-c2ccccc2O)n1,-1.86%
15,Cc1ccc(S(=O)c2ccc(C)cc2)cc1,-2.31%
16,O=C(CSc1nnc(-c2ccncc2)n1Cc1ccco1)Nc1ccccc1F,-20.4%
17,CCOc1ccc(NC(=S)N=Nc2c(O)[nH]c3ccccc23)cc1,-2.95%
18,COc1ccc(C(=O)COC(=O)c2ccc(N(C)C)cc2)cc1,-0.557%
19,O=c1[nH]c(=O)n(Cc2ccc(F)cc2)c(O)c1C=NCCCN1CCOCC1,-15.9%
20,COC(=O)c1cccc(NC(=O)/C=C/c2ccc([N+](=O)[O-])cc2)c1,-21.4%
21,CNC(=O)c1csc(-c2ccc(Cl)cc2)n1,-4.29%
22,CCC(C)NC(=O)Nc1ccc(Br)cc1 (centres unmarked),-8.93%
23,Fc1ccc(-n2cc(-c3ccccc3)[n+]3c2SCC3)cc1.[Br-],-22.7%

row,SMILES,"hERG current change (%, negative = inhibition) at 10uM"
1,CC1=NNC(=O)C1CC(=O)N/N=C(\C)c1ccco1 (centres unmarked),18.8%
2,Cc1occc1C(=O)NNC(=S)Nc1ccccc1,8.24%
3,CCOc1ccccc1CN1CCN(Cc2ccon2)CC1CCO (centres unmarked),-42.6%
4,CC(=O)Nc1ccc2nc(CN3CCN(CC=C(C)C)C(CCO)C3)ccc2c1 (centres unmarked),11.5%
5,CC(=O)Nc1ccc(S(=O)(=O)Nc2cccc(C(=O)NC(C)(C)C)c2)cc1,-7.15%
6,CCC1=NN2C(=N)/C(=C/c3ccc(OS(=O)(=O)c4ccccc4)c(OC)c3)C(=O)N=C2S1,3.74%
7,Cc1cc2n(n1)C(c1ccccc1Cl)Nc1ccccc1-2 (centres unmarked),-11.3%
8,O=C(NCCc1ccccc1)NC(Cc1ccccc1)C(=O)O (centres unmarked),5.7%
9,CC(C)(C)C1CCC(OC(=O)C[N+]2(C)CCCCC2)CC1.[I-] (centres unmarked),23.1%
10,CNC(=S)N(CCc1ccc(OC)c(OC)c1)Cc1cc2c(C)cc(C)cc2[nH]c1=O,-17.7%
11,O=C(CNC(=O)c1cccs1)NCC(=O)OCc1c(Cl)cccc1Cl,-9.19%
12,COc1ccc(CC(=O)Nc2ccc(-c3noc(-c4ccccc4OC)n3)cc2)cc1,-8.1%
13,Br.COc1cccc(C(=O)Cn2c(=N)n(C)c3ccccc32)c1,-27.2%
14,Cc1ccc(NC(=O)/C(C#N)=C/c2ccccc2C(F)(F)F)cc1,14.4%
15,COc1cc(CCC(=O)Nc2nnc(-c3cccnc3)s2)cc(OC)c1OC,-35.6%
16,CN(C)S(=O)(=O)c1ccc(C(=O)Nc2ccccn2)cc1,-9.58%
17,COc1cccc(-n2cn[nH]c2=S)c1,19%
18,N#Cc1nc(Cc2cccc3ccccc23)oc1NCC1CCCO1 (centres unmarked),-17.3%
19,Cc1cc(C)cc(OCC(=O)N/N=C/c2ccco2)c1,37.4%
20,N#Cc1ccccc1OCC(=O)NC(N)=O,8.51%
21,CC1Cc2ccccc2N1C(=O)CCn1c(=O)sc2ccccc21 (centres unmarked),-6.66%
22,COc1ccc(N2CCN(S(=O)(=O)CCNC(=O)COc3ccc(Cl)cc3)CC2)cc1,17.8%
23,Cc1cccc(C)c1N(CC(O)Cn1c2ccccc2c2ccccc21)S(C)(=O)=O (centres unmarked),18.6%

row,SMILES,"hERG current change (%, negative = inhibition) at 10uM"
1,CCCCNc1c(-c2cccc(-c3ccc(OC)cc3)c2)nc2ccc(C)cn12.O=C(O)C(F)(F)F,0.506%
2,CNNC(=S)NCCC1=CCCCC1,-4.39%
3,Cn1c(=O)c2c(ncn2CC(=O)N2CCCCCC2)n(C)c1=O,17.3%
4,COc1ccc(C(=O)/C=C/Sc2nc3ccccc3o2)cc1,24.3%
5,COC(=O)c1cccc2c1-c1ccccc1/C2=N\NC(N)=O,6.03%
6,COc1cc(OC)cc(-c2nc(SCC(=O)Nc3ccccc3F)n[nH]2)c1,19%
7,COc1ccc(N(CC(=O)NCCc2ccc(OC)c(OC)c2)S(=O)(=O)c2c(C)noc2C)cc1,0.275%
8,CN(C)c1ccc(/C=C(/NC(=O)c2ccccc2)C(=O)NCCCn2ccnc2)cc1,0.277%
9,CCN1CCC(Nc2ccnc3cc(Cl)ccc23)CC1,-40.5%
10,O=C(Nc1cccc(Cl)c1)c1cccc(N2C(=O)C3CC=CCC3C2=O)c1 (centres unmarked),-24.8%
11,CCN(CC)CCCNC(=O)c1cn(CC)c2ccc(S(=O)(=O)N3CCc4ccccc4C3)cc2c1=O,-52.9%
12,O=C(COc1ccc2ccccc2c1)Nc1nnc(-c2ccco2)s1,7.18%
13,CC(=O)C1=C(C)NC(=S)NC1c1cc([N+](=O)[O-])ccc1O (centres unmarked),-2.48%
14,CC(OC(=O)CC1CCCC1)C(=O)Nc1ccc(S(N)(=O)=O)cc1 (centres unmarked),-13.1%
15,Fc1ccc(CN(Cc2ccccc2)C(c2cccs2)c2nnnn2C2CCCCC2)cc1 (centres unmarked),-1.36%
16,CSc1nnc(-c2sc3cc(Cl)ccc3c2Cl)n1C,0.137%
17,COc1ccccc1NC(=O)N1CCN(S(C)(=O)=O)CC1,16.5%
18,Cc1ccc(NC(=O)COc2ccc3c(c2)OCO3)c(Cl)c1,23.7%
19,COc1cc(NC(=O)C2CCCN2C(=O)C2CCC(C)CC2)cc(OC)c1OC (centres unmarked),-5.06%
20,Cc1ccccc1C(=O)Nc1ccc(N2CCN(C)CC2)nc1,-1.6%
21,CCOc1ccc(C(=O)NC2CCN(C(=O)Nc3ccc(F)cc3)CC2)cc1,0.481%
22,CCC1(C)Cc2sc3c(=O)[nH]c(=S)[nH]c3c2CO1 (centres unmarked),15.6%
23,c1cnc(Sc2ccc3nnnn3n2)nc1,-56.4%

row,SMILES,"hERG current change (%, negative = inhibition) at 10uM"
1,Cn1c2ccccc2c(=O)c2ccc(F)cc21,0.557%
2,CCOc1ccc(CCNC(=O)COC(=O)c2cc(OC)c(OC)cc2[N+](=O)[O-])cc1OCC,-9.31%
3,O=C1[C@@H]2Cc3c([nH]c4ccccc34)C(c3ccc([N+](=O)[O-])cc3)N2C(=O)CN1C1CC1 (some centres unmarked),-25.2%
4,O=[N+]([O-])c1nn(-c2ccccc2)[n+]([O-])c1N1CCN(c2ccccc2F)CC1,16%
5,Cc1nc(N2CCN(c3ccccn3)CC2)c2c(C)c(C(=O)N3CCN(c4ccccc4F)CC3)sc2n1,11.8%
6,Cc1cc(-c2nnc(SCc3ccccn3)o2)no1,7.86%
7,CCOC(=O)C1=C(C)Nc2ccccc2N/C1=N\S(=O)(=O)c1ccc(Cl)cc1,-7.32%
8,Cc1ccc(NC(=O)CCNC(=O)c2ccc(Cl)cc2)cc1C,6.53%
9,CSc1cccc(NS(=O)(=O)c2cccs2)c1,-1.95%
10,O=C(Nn1c(-c2ccccc2)nc2ccccc2c1=O)c1cccs1,8.42%
11,O=C(O)/C(=C\c1cccs1)Sc1nnc(-c2ccc(F)cc2)o1,1.52%
12,COc1ccc(C(C)=O)cc1CSc1ccccn1,4.16%
13,Cc1nn(-c2ccccc2)c(N)c1Sc1ccccc1[N+](=O)[O-],-26.7%
14,Cc1ccc2[nH]c(=O)c(CNS(=O)(=O)c3ccccc3)c(-c3ccccc3)c2c1,16.2%
15,O=C(NC1CCCC1)C1CC1c1ccccc1 (centres unmarked),-1.17%
16,CCOC(=O)CN1C(=O)C2(OCCCO2)c2cc(Br)ccc21,7.52%
17,COc1cc(NC(=O)c2ccc(NS(=O)(=O)c3c(C)noc3C)cc2)cc(OC)c1,1.03%
18,Cc1ccc(S(=O)(=O)N2CCOCC2)cc1NC(=O)COc1ncnc2ccccc12,12.9%
19,CCOC(=O)C1=C(CN2CCN(c3ccc(F)cc3)CC2)NC(=O)NC1c1cccs1 (centres unmarked),-41%
20,O=C(c1cccc(F)c1)N1CCN(c2cc(N3CCCCC3)c(F)cc2[N+](=O)[O-])CC1,0.466%
